The campaign covered roughly 420,000 compounds. About 50,000 (12%) were called active. Inconclusive means that the source gave no clear call. Such entries were picked first, then a sample of the others. The call rests on the fitted dose curve; in most records, active means well fitted inhibition curve with a large enough effect; inconclusive means small, poorly fitted or top-dose-only effect; inactive means flat fitted curve, though single readings scatter. No potency is given beside an inconclusive call; the fits are too rough.
Test: qHTS for Inhibitors of human tyrosyl-DNA phosphodiesterase 1 (TDP1): qHTS in cells in presence of CPT; further: nearly all actives have a fitted effect of over 55% in size
Settings: chicken DT40 Tdp1-/-;hTDP1 cells + 20 nM CPT, ATP luminescence, 48 h; activity change, negative = growth inhibition: at 46.2 µM (top of the series) unless noted
How it was run: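 Cell growth measured by CellTiter-Glo luminescence after a minimum 48 h, 37 C compound exposure with 20 nM CPT in Tdp1-knockout DT40 cells stably expressing hTDP1, seeded 400/well; qHTS titration format.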
With `O=C(Nc1ccc(Br)cc1)c1cc(-c2cccs2)nc2ccccc12` the Potency was inconclusive [inhibitor, single point].
With `Cc1ccc(Cn2c(C)c(C(=O)NCc3cccs3)sc2=O)cc1` the Potency was inconclusive [inhibitor, single point].
With `Cc1ccc(-n2nc3c(N4CCC(C(=O)NCc5ccc(C)o5)CC4)nnc(C)c3c2C)cc1` the Potency was active: 23.1 µM.
For `Fc1c(F)c(C(F)(F)F)c(F)c(F)c1N/N=C\c1cccs1`, the Potency was active: 16.4 µM.
With `O=c1cc(N2CCN(c3ccccc3Cl)CC2)[nH]c(=O)n1Cc1ccc(F)cc1` the Potency was active: 4.61 µM.
For `N=C1C(c2nc(-c3ccc(F)cc3)cs2)=C(O)CN1Cc1ccc(Cl)cc1`, the “activity change, negative = growth inhibition” value was inactive: -7.28%.
With `COc1ccc(Nc2ncc3c(n2)CC(c2ccc(C)cc2)CC3=O)cc1` (stereo not drawn) the Potency was inconclusive [inhibitor, partial curve].
For `C[C@H]1COC[C@@H](C/C=C/c2ccccc2)N1c1ccccc1`, the Potency was inconclusive [inhibitor, single point].
In the case of `CCN(CC)CCN1C(=O)C(=O)/C(=C(/O)c2ccc3c(c2)CC(C)O3)C1c1ccc(OC)cc1` (stereo not drawn), the Potency was inconclusive [inhibitor, single point].
For `Cc1ccccc1C(=O)NCCN1CCC(n2c(=O)[nH]c3ccccc32)CC1`, the Potency was inconclusive [inhibitor, single point].
In the case of `CCS(=O)(=O)C(=C(Nc1ccc(OC)cc1)Nc1ccc(OC)cc1)S(=O)(=O)CC`, the Potency was inconclusive [inhibitor, partial curve].
With `O=C(CSc1nnc(N2CCOCC2)n1-c1cccc(F)c1)N1CCN(c2ccccn2)CC1` the “activity change, negative = growth inhibition” value was inactive: 1.76%.
In the case of `Nc1nc(NCc2c(F)cccc2Cl)nn1-c1ccccc1`, the “activity change, negative = growth inhibition” value was inactive: -2.35%.
With `CC(=O)Nc1ccc(NC(=O)CSc2nccn2Cc2ccc3c(c2)OCO3)cc1` the Potency was inconclusive [inhibitor, single point].
In the case of `COc1ccccc1C(CCN(Cc1ccccc1)C(C)=O)c1ccco1` (stereo not drawn), the Potency was inconclusive [inhibitor, single point].
For `Brc1ccc(C2CC(c3ccccc3)=Nc3ccccc3N2)cc1` (stereo not drawn), the Potency was inconclusive [inhibitor, single point].
With `Cc1cc(OCC(O)CN(C)C(=O)C(C)Oc2ccccc2)ccc1Cl` (stereo not drawn) the Potency was inconclusive [inhibitor, single point].
In the case of `O=C1CC(c2ccccc2)n2nc(NC(=O)c3ccccn3)nc2N1` (stereo not drawn), the Potency was inconclusive [inhibitor, single point].
In the case of `COc1ccc(CCNc2cc(C)nc3c(-c4ccccc4OC)cnn23)cc1OC`, the Potency was inconclusive [inhibitor, single point].
With `CCC(=O)N1CCc2cc(S(=O)(=O)CCC(=O)NCCC3=CCCCC3)ccc21` the Potency was inconclusive [inhibitor, single point].
In the case of `CN(CC(=O)Nc1cccc(F)c1)C(=O)c1cc(-c2ccco2)nc2ccccc12`, the Potency was inconclusive [inhibitor, partial curve, poor fit].
In the case of `COc1ccc(-c2cc(C(=O)Oc3ccc(C)cc3)c3ccccc3n2)cc1`, the Potency was inconclusive [inhibitor, partial curve].
With `CC(C)Oc1ccc(C(=O)N2CCC(c3nc4ccccc4o3)CC2)cc1` the Potency was inconclusive [inhibitor, single point].
With `CC(=O)Nc1ccc(S(=O)(=O)N2CCN=C2SCc2ccccc2C)cc1` the Potency was inconclusive [inhibitor, single point].
With `CCOC(=O)NC(=O)/C(C#N)=C(/C)N(C)C` the “activity change, negative = growth inhibition” value was inactive: -0.908%.
In the case of `COc1ccccc1/C=C/C(=O)Nc1cccc(S(=O)(=O)N2CCOCC2)c1`, the Potency was inconclusive [inhibitor, single point].
With `Cc1ccc(NS(=O)(=O)c2ccc(-c3cnc(C4CC4)o3)cc2)cc1N(C)C` the Potency was active: 1.03 µM.
For `Nn1c(SCC(=O)N2CCCC2=O)nnc1-c1cccs1`, the “activity change, negative = growth inhibition” value was inactive: -0.561%.
For `N=c1n(CCCOc2ccccc2Cl)c2ccccc2n1CC(N)=O`, the Potency was active: 18.4 µM.
In the case of `CCCNC(=O)C1CCN(c2cc(-c3ccccc3)nc3ncnn23)CC1`, the activity change, negative = growth inhibition was inconclusive: -36.7% [inhibitor].
With `CCOC(=O)c1nn(-c2cccc(C)c2)c2nc(-c3ccccc3)c(C#N)c(=O)n12` the Potency was inconclusive [inhibitor, single point].
With `CCOc1ccccc1CNC(=O)CCc1c(C)nn(-c2ccc(N3CCCCC3)nn2)c1C` the Potency was inconclusive [inhibitor, single point].
In the case of `Cc1ccc(-n2ncc3c(=O)n(CC(=O)N4CCN(c5ccccc5F)CC4)cnc32)cc1C`, the “activity change, negative = growth inhibition” value was inactive: -27%.
For `Cc1onc(-c2ccccc2)c1C(=O)Nc1ccc(NC(=O)c2c(-c3ccccc3)noc2C)cc1`, the “activity change, negative = growth inhibition” value was inactive: -2%.
For `COc1ccc(NC(=S)N2CCN(c3ccc([N+](=O)[O-])cc3)CC2)cc1OC`, the Potency was active: 10.3 µM.
For `C=CCOc1ccc(C2/C(=C(/O)c3ccc4c(c3)CC(C)O4)C(=O)C(=O)N2CCCN2CCOCC2)cc1` (stereo not drawn), the Potency was inconclusive [inhibitor, single point].
With `CC(C)(C)C1CCc2onc(C(=O)NCc3ccc(F)cc3)c2C1` (stereo not drawn) the activity change, negative = growth inhibition was inconclusive: -33.1% [inhibitor].
For `CN(CCc1ccccc1)C(=O)c1ccc(NC(=O)Cc2ccc(NC(=O)C3CCN(C(=O)C4CC4)CC3)cc2)cc1`, the Potency was active: 23.1 µM.
With `Cc1cc(N2CCOCC2)n2nc(-c3cccc(F)c3)cc2n1` the “activity change, negative = growth inhibition” value was inactive: -21.3%.
In the case of `Cc1ccccc1CC1(CO)CCCN(C(=O)c2cc(Cl)ccc2F)C1` (stereo not drawn), the Potency was inconclusive [inhibitor, single point].
With `Cc1ccc(NC(=O)CSc2nnc(-c3nnn(-c4ccc(F)cc4)c3C)o2)cc1Br` the Potency was inconclusive [inhibitor, partial curve].
With `CCCC1=C(C(=O)OCC)C(/C=C/c2ccccc2)n2ncnc2N1` (stereo not drawn) the Potency was active: 15.8 µM.
With `Cc1ccc(-n2c(Cc3cccn3C)nnc2SCC(=O)N2CCN(c3ccccc3)CC2)cc1` the Potency was inconclusive [inhibitor, single point].
In the case of `Cc1cc(Br)ccc1OCC(=O)N(Cc1nc(-c2ccccc2)no1)C(C)C`, the “activity change, negative = growth inhibition” value was inactive: -8.65%.
With `CC(=O)Nc1c2c(nn1-c1ccc(F)cc1)CSC2` the “activity change, negative = growth inhibition” value was inactive: 2.59%.
For `CCc1ccc(C(=O)COC(=O)C(Cc2c[nH]c3ccccc23)NC(=O)c2ccc(CC)cc2)cc1` (stereo not drawn), the Potency was inconclusive [inhibitor, single point].
In the case of `Cc1[nH]c2ccccc2c1C(=O)C(=O)N1CCN(c2cccc(Cl)c2)CC1`, the Potency was inconclusive [inhibitor, single point].
For `CCCCC1(Br)C(=O)N(c2ccccc2)N(c2ccccc2)C1=O`, the Potency was inconclusive [inhibitor, single point].
In the case of `COc1ccc(CNC(=O)c2cc3cc4ccc(C)cc4nc3o2)cc1`, the Potency was inconclusive [inhibitor, single point].
For `S=c1[nH]nc(Nc2ccccc2)s1`, the Potency was inconclusive [inhibitor, single point].
For `COCC(=O)N1CCC2(CC1)CN(c1ccc(-c3ccccc3)cc1)C2`, the Potency was active: 8.2 µM.
In the case of `O=C(Cc1ccc([N+](=O)[O-])cc1)N1CCN=C1SCc1ccccc1`, the “activity change, negative = growth inhibition” value was inactive: -6.16%.
In the case of `Clc1ccc(-c2nc3ccccc3nc2-c2ccccc2)cc1`, the Potency was inconclusive [inhibitor, single point].
With `CC1CN(c2ccc([N+](=O)[O-])cc2Cl)CCN1S(C)(=O)=O` (stereo not drawn) the Potency was inconclusive [inhibitor, single point].
With `Cc1nc(-c2cccc(F)c2)sc1CCNC(=O)c1c(F)cccc1Cl` the Potency was inconclusive [inhibitor, single point].
For `Cc1ccc2c(c1)C1CN(C)CCC1N2C(=O)COc1ccc(N(C)C(=O)c2ccccc2)cc1` (stereo not drawn), the Potency was active: 5.17 µM.
For `OCc1ccccc1-c1cccc2nccn12`, the Potency was inconclusive [inhibitor, single point].
For `CC(C)N(C(=O)Cn1cc(S(=O)(=O)CC(=O)NCc2ccc(F)cc2)c2ccccc21)C(C)C`, the Potency was inconclusive [inhibitor, single point].
With `Cc1ccc(C(=O)NNC(=S)Nc2cccc3ccccc23)s1` the “activity change, negative = growth inhibition” value was inactive: -10.4%.
For `COc1ccc(-c2nc(CN3CCN(C(=O)c4ccco4)CC3)c(C)o2)c(OC)c1C`, the Potency was inconclusive [inhibitor, single point].
For `O=S(=O)(c1cccc(-c2nc3ccccc3s2)c1)N1CCOCC1`, the Potency was inconclusive [inhibitor, single point].
In the case of `Cc1cccc(C)c1NC(=O)COC(=O)c1cccc2c1C(=O)c1ccccc1C2=O`, the Potency was active: 11.6 µM.
For `O=C1c2ccccc2NC(c2ccco2)N1O` (stereo not drawn), the Potency was inconclusive [inhibitor, single point].
For `Cc1ccc2nc(-c3ccc(N4C(=O)CC(N5CCN(CCO)CC5)C4=O)cc3)sc2c1` (stereo not drawn), the Potency was inconclusive [inhibitor, single point].
For `Cc1cc(C2(c3ccc(O)c(C)c3)C(=O)Nc3ccccc32)ccc1O`, the Potency was inconclusive [inhibitor, single point].
For `COc1cccc(N2CCN(C(=O)c3cc4c(s3)-c3c(C)cccc3OC4)CC2)c1`, the Potency was inconclusive [inhibitor, single point].
For `Clc1ccccc1N1CCN(Cc2c[nH]c3ccccc23)CC1`, the Potency was active: 2.59 µM.
With `S=C(NCCc1ccccc1)N1CCC2CC1c1c(Cl)cccc12` (stereo not drawn) the Potency was inconclusive [inhibitor, single point].
On the % scale 0 is the no-effect control and ±100 the full control effect; potency means the concentration at half of the fitted maximal effect; tags describe the fitted curve by direction and shape.
